# ± gives the standard deviation of the averaged measurements. The full ranking holds about 33,000 sequences; the median of “E-score (dimensionless, -0.5 to 0.5)” is about -0.046, and the highest 2% start at about 0.36. The list shows a part of the results.
# Tested on: T1, SpTbr T-box DNA-binding domain (GST fusion)
# T1 sequence: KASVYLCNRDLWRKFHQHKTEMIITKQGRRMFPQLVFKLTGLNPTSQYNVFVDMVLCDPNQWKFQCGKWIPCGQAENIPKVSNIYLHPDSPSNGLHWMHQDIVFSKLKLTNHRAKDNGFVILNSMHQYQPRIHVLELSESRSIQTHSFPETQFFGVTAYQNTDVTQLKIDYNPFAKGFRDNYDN
# Assay: PBM E-score of 8-mer (E-score (dimensionless, -0.5 to 0.5)); Tbr is Tbrain of the sea star Patiria miniata (Pm) or the sea urchin Strongylocentrotus purpuratus (Sp); higher = stronger binding preference; most listed sequences are background and not binding sites
# Conditions: the construct has about 5 more residues each side
# Procedure, shortened: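 Using the Universal PBM Analysis Suite, every ungapped 8-mer received an enrichment E-score averaged over duplicate arrays. Probe intensities came from double-stranded Universal Agilent oligonucleotide arrays incubated with 200 nM GST-fused Tbr T-box DNA-binding domain in PBS (pH 7.5). That protein was expressed in BL21 E. coli at 20 °C and purified by glutathione affinity chromatography.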
row,Sequence,PBM E-score of 8-mer
1,TAAGCAGA,-0.0352 ± 0.025
2,CCAACGCA,-0.0665 ± 0.067
3,AGGACTCA,-0.138 ± 0.053
4,AACCTGAC,0.121 ± 0.003
5,AGACCTCA,0.1 ± 0.022
6,ATGGCTCA,-0.0768 ± 0.0097
7,AATGTCCT,-0.182 ± 0.085
8,AGGTACTC,0.025 ± 0.059
9,ACCTGCGG,0.0628 ± 0.089
10,CGCATGCC,-0.243 ± 0.062
11,CACGATCA,0.233 ± 0.025
12,AGCTGAAA,-0.143 ± 0.04
13,GTAGGCCA,-0.211 ± 0.066
14,AGATGCTC,-0.204 ± 0.072
15,CAGTGGCG,0.283 ± 0.02
16,ACGTGTTG,0.367 ± 0.00092
17,CGTCCCAG,-0.147 ± 0.019
18,CGACATAA,0.00045 ± 0.028
19,ACCGATGG,-0.0937 ± 0.019
20,AGCTATAC,-0.146 ± 0.0067
21,GAAGTTGC,0.157 ± 0.0091
22,CTCGCAGC,0.164 ± 0.029

row,Sequence,PBM E-score of 8-mer
1,GATAACAA,0.27 ± 0.027
2,GAAGACTA,-0.1147 ± 0.00035
3,GATGGCCC,-0.0565 ± 0.029
4,GCTACTTA,-0.197 ± 0.0028
5,ACTAACGG,0.184 ± 0.028
6,ATGGCGTA,-0.0961 ± 0.0076
7,CATGGTGA,0.157 ± 0.0046
8,GCGTCCCC,0.00456 ± 0.02
9,AGGGTGGC,0.175 ± 0.056
10,CGCTCGAG,-0.163 ± 0.035
11,GACTGAGA,-0.163 ± 0.0075
12,CTACTCCA,-0.0404 ± 0.026
13,ACTCGCCT,0.0713 ± 0.046
14,ACCGACCT,0.0764 ± 0.062
15,CTCCACGC,0.0274 ± 0.067
16,CCCTAGTA,-0.122 ± 0.074
17,GACTCTGC,-0.1398 ± 0.00023
18,GGAATGTA,-0.184 ± 0.018
19,CTACCTAA,-0.245 ± 0.018
20,AGCTGGAC,-0.17 ± 0.059
21,AAAACTAC,0.0452 ± 0.013
22,AACAGGAT,-0.0627 ± 0.049

row,Sequence,PBM E-score of 8-mer
1,GGGCCAAC,-0.055 ± 0.057
2,CTTTGGCA,0.3 ± 0.042
3,AAAAGGAA,-0.00645 ± 0.021
4,CCAATGTC,0.0383 ± 0.068
5,ACCGGACC,-0.14 ± 0.028
6,CATGGCTC,-0.00838 ± 0.041
7,CCCAGGGC,-0.114 ± 0.057
8,GGTCAAAA,-0.22 ± 0.035
9,CATGTGAA,0.218 ± 0.0025
10,GTGACATA,0.292 ± 0.019
11,CTCCAGAG,-0.1883 ± 0.00025
12,CCTCCTAG,-0.129 ± 0.066
13,AGGACTGG,-0.282 ± 0.072
14,AATTCAAA,-0.135 ± 0.021
15,ACCAAGGG,-0.055 ± 0.07
16,GGGTGTAA,0.386 ± 0.0076
17,AGGGTGCC,0.267 ± 0.013
18,GGTCGCGA,0.335 ± 0.017
19,ATAGTCAA,-0.0249 ± 0.04
20,CACAAAGG,-0.124 ± 0.044
21,AGCAGACA,0.0593 ± 0.041
22,ACGGACAT,-0.0905 ± 0.036

row,Sequence,PBM E-score of 8-mer
1,CCACAGCC,-0.0536 ± 0.0064
2,CCCAGTCC,-0.159 ± 0.062
3,CCCACTGA,-0.2 ± 0.018
4,CACGGAAA,0.00884 ± 0.029
5,ATCACAAT,0.212 ± 0.042
6,TAGATGGA,-0.216 ± 0.0073
7,GAGTCCGC,-0.156 ± 0.013
8,GGACGCAC,0.0226 ± 0.0051
9,GTAGAATA,-0.156 ± 0.016
10,TCCACGCA,0.223 ± 0.051
11,ACGTGACG,0.311 ± 0.052
12,CTAGCAAC,0.226 ± 0.0097
13,CAGCTCGG,-0.132 ± 0.057
14,ACACGAAT,0.0562 ± 0.031
15,GTATCGGA,0.0214 ± 0.043
16,AAGCCAGA,-0.361 ± 0.047
17,AACCTAAT,-0.165 ± 0.011
18,ACTACCGA,-0.178 ± 0.036
19,ATTCCGCG,0.0565 ± 0.061
20,AATATGAA,-0.127 ± 0.096

# From the supplement of paper PMC4166925
